± gives the standard deviation of the averaged measurements. Laboratory Escherichia coli strains with one amino-acid change in an essential protein, pooled on minimal glucose agar with carbenicillin or gentamicin at twice the control MIC (plus kanamycin and chloramphenicol for the plasmids), 48 h. Fold change of barcode share against drug-free plates; higher = less susceptible. Active = above 20 in both replicates (the paper's putatively resistant). '<' = one read or none on drug, '>' = one read or none on a drug-free plate. Shares are relative, so most strains fall below 1 when a few take over. Listed are strains with at least 15 reads on both drug-free plates, and hits; most hits rest on fewer reference reads. Replicate rank correlation about 0.5. Edits are read from barcodes.
Biological target: Escherichia coli (laboratory strain)
Assay: barcode share on antibiotic plates over drug-free plates; higher = less susceptible
Experimental: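 A pool of E. coli strains, each edited to carry one amino-acid change in an essential protein, was grown for 48 h on minimal glucose agar with or without antibiotic; strain barcodes were sequenced; mean of two replicates.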

[1] = antibiotic: carbenicillin, 2× MIC (3.1 µg/mL)
[2] = antibiotic: gentamicin, 2× MIC (MIC 0.45 µg/mL)

Row | Protein | fold change of barcode share [1] | fold change of barcode share [2]
1 | metL L432A (protein) MSVIAQAGAKGRQLHKFGGSSLADVKCYLRVAGIMAEYSQPDDMMVVSAAGSTTNQLINWLKLSQTDRLSAHQVQQTLRRYQCDLISGLLPAEEADSLISAFVSDLERLAALLDSGINDAVYAEVVGHGEVWSARLMSAVLNQQGLPAAWLDAREFLRAERAAQPQVDEGLSYPLLQQLLVQHPGKRLVVTGFISRNNAGETVLLGRNGSDYSATQIGALAGVSRVTIWSDVAGVYSADPRKVKDACLLPLLRLDEASELARLAAPVLHARTLQPVSGSEIDLQLRCSYTPDQGSTRIERVLASGTGARIVTSHDDVCLIEFQVPASQDFKLAHKEIDQILKRAQVRPLAVGVHNDRQLLQFCYTSEVADSALKILDEAGLPGELRLRQGLALVAMVGAGVTRNPLHCHRFWQQLKGQPVEFTWQSDDGISAVAVLRTGPTESLIQGLHQSVFRAEKRIGLVLFGKGNIGSRWLELFAREQSTLSARTGFEFVLAGVVDSRRSLLSYDGLDASRALAFFNDEAVEQDEESLFLWMRAHPYDDLVVLDVTASQQLADQYLDFASHGFHVISANKLAGASDSNKYRQIHDAFEKTGRHWLYNATVGAGLPINHTVRDLIDSGDTILSISGIFSGTLSWLFLQFDGSVPFTELVDQAWQQGLTEPDPRDDLSGKDVMRKLVILAREAGYNIEPDQVRVESLVPAHCEGGSIDHFFENGDELNEQMVQRLEAAREMGLVLRYVARFDANGKARVGVEAVREDHPLASLLPCDNVFAIESRWYRDNPLVIRGPGAGRDVTAGAIQSDINRLAQLL | 0.304 ± 0.045 | 0.00658 ± 0.0044
2 | metL L432W (protein) MSVIAQAGAKGRQLHKFGGSSLADVKCYLRVAGIMAEYSQPDDMMVVSAAGSTTNQLINWLKLSQTDRLSAHQVQQTLRRYQCDLISGLLPAEEADSLISAFVSDLERLAALLDSGINDAVYAEVVGHGEVWSARLMSAVLNQQGLPAAWLDAREFLRAERAAQPQVDEGLSYPLLQQLLVQHPGKRLVVTGFISRNNAGETVLLGRNGSDYSATQIGALAGVSRVTIWSDVAGVYSADPRKVKDACLLPLLRLDEASELARLAAPVLHARTLQPVSGSEIDLQLRCSYTPDQGSTRIERVLASGTGARIVTSHDDVCLIEFQVPASQDFKLAHKEIDQILKRAQVRPLAVGVHNDRQLLQFCYTSEVADSALKILDEAGLPGELRLRQGLALVAMVGAGVTRNPLHCHRFWQQLKGQPVEFTWQSDDGISWVAVLRTGPTESLIQGLHQSVFRAEKRIGLVLFGKGNIGSRWLELFAREQSTLSARTGFEFVLAGVVDSRRSLLSYDGLDASRALAFFNDEAVEQDEESLFLWMRAHPYDDLVVLDVTASQQLADQYLDFASHGFHVISANKLAGASDSNKYRQIHDAFEKTGRHWLYNATVGAGLPINHTVRDLIDSGDTILSISGIFSGTLSWLFLQFDGSVPFTELVDQAWQQGLTEPDPRDDLSGKDVMRKLVILAREAGYNIEPDQVRVESLVPAHCEGGSIDHFFENGDELNEQMVQRLEAAREMGLVLRYVARFDANGKARVGVEAVREDHPLASLLPCDNVFAIESRWYRDNPLVIRGPGAGRDVTAGAIQSDINRLAQLL | 0.281 ± 0.096 | 0.00352 ± 0.00085
3 | metL L432Q (protein) MSVIAQAGAKGRQLHKFGGSSLADVKCYLRVAGIMAEYSQPDDMMVVSAAGSTTNQLINWLKLSQTDRLSAHQVQQTLRRYQCDLISGLLPAEEADSLISAFVSDLERLAALLDSGINDAVYAEVVGHGEVWSARLMSAVLNQQGLPAAWLDAREFLRAERAAQPQVDEGLSYPLLQQLLVQHPGKRLVVTGFISRNNAGETVLLGRNGSDYSATQIGALAGVSRVTIWSDVAGVYSADPRKVKDACLLPLLRLDEASELARLAAPVLHARTLQPVSGSEIDLQLRCSYTPDQGSTRIERVLASGTGARIVTSHDDVCLIEFQVPASQDFKLAHKEIDQILKRAQVRPLAVGVHNDRQLLQFCYTSEVADSALKILDEAGLPGELRLRQGLALVAMVGAGVTRNPLHCHRFWQQLKGQPVEFTWQSDDGISQVAVLRTGPTESLIQGLHQSVFRAEKRIGLVLFGKGNIGSRWLELFAREQSTLSARTGFEFVLAGVVDSRRSLLSYDGLDASRALAFFNDEAVEQDEESLFLWMRAHPYDDLVVLDVTASQQLADQYLDFASHGFHVISANKLAGASDSNKYRQIHDAFEKTGRHWLYNATVGAGLPINHTVRDLIDSGDTILSISGIFSGTLSWLFLQFDGSVPFTELVDQAWQQGLTEPDPRDDLSGKDVMRKLVILAREAGYNIEPDQVRVESLVPAHCEGGSIDHFFENGDELNEQMVQRLEAAREMGLVLRYVARFDANGKARVGVEAVREDHPLASLLPCDNVFAIESRWYRDNPLVIRGPGAGRDVTAGAIQSDINRLAQLL | 0.706 ± 0.31 | 0.00678 ± 0.005
4 | metL L432D (protein) MSVIAQAGAKGRQLHKFGGSSLADVKCYLRVAGIMAEYSQPDDMMVVSAAGSTTNQLINWLKLSQTDRLSAHQVQQTLRRYQCDLISGLLPAEEADSLISAFVSDLERLAALLDSGINDAVYAEVVGHGEVWSARLMSAVLNQQGLPAAWLDAREFLRAERAAQPQVDEGLSYPLLQQLLVQHPGKRLVVTGFISRNNAGETVLLGRNGSDYSATQIGALAGVSRVTIWSDVAGVYSADPRKVKDACLLPLLRLDEASELARLAAPVLHARTLQPVSGSEIDLQLRCSYTPDQGSTRIERVLASGTGARIVTSHDDVCLIEFQVPASQDFKLAHKEIDQILKRAQVRPLAVGVHNDRQLLQFCYTSEVADSALKILDEAGLPGELRLRQGLALVAMVGAGVTRNPLHCHRFWQQLKGQPVEFTWQSDDGISDVAVLRTGPTESLIQGLHQSVFRAEKRIGLVLFGKGNIGSRWLELFAREQSTLSARTGFEFVLAGVVDSRRSLLSYDGLDASRALAFFNDEAVEQDEESLFLWMRAHPYDDLVVLDVTASQQLADQYLDFASHGFHVISANKLAGASDSNKYRQIHDAFEKTGRHWLYNATVGAGLPINHTVRDLIDSGDTILSISGIFSGTLSWLFLQFDGSVPFTELVDQAWQQGLTEPDPRDDLSGKDVMRKLVILAREAGYNIEPDQVRVESLVPAHCEGGSIDHFFENGDELNEQMVQRLEAAREMGLVLRYVARFDANGKARVGVEAVREDHPLASLLPCDNVFAIESRWYRDNPLVIRGPGAGRDVTAGAIQSDINRLAQLL | 0.289 ± 0.012 | 0.00889 ± 0.0069
5 | metL L432P (protein) MSVIAQAGAKGRQLHKFGGSSLADVKCYLRVAGIMAEYSQPDDMMVVSAAGSTTNQLINWLKLSQTDRLSAHQVQQTLRRYQCDLISGLLPAEEADSLISAFVSDLERLAALLDSGINDAVYAEVVGHGEVWSARLMSAVLNQQGLPAAWLDAREFLRAERAAQPQVDEGLSYPLLQQLLVQHPGKRLVVTGFISRNNAGETVLLGRNGSDYSATQIGALAGVSRVTIWSDVAGVYSADPRKVKDACLLPLLRLDEASELARLAAPVLHARTLQPVSGSEIDLQLRCSYTPDQGSTRIERVLASGTGARIVTSHDDVCLIEFQVPASQDFKLAHKEIDQILKRAQVRPLAVGVHNDRQLLQFCYTSEVADSALKILDEAGLPGELRLRQGLALVAMVGAGVTRNPLHCHRFWQQLKGQPVEFTWQSDDGISPVAVLRTGPTESLIQGLHQSVFRAEKRIGLVLFGKGNIGSRWLELFAREQSTLSARTGFEFVLAGVVDSRRSLLSYDGLDASRALAFFNDEAVEQDEESLFLWMRAHPYDDLVVLDVTASQQLADQYLDFASHGFHVISANKLAGASDSNKYRQIHDAFEKTGRHWLYNATVGAGLPINHTVRDLIDSGDTILSISGIFSGTLSWLFLQFDGSVPFTELVDQAWQQGLTEPDPRDDLSGKDVMRKLVILAREAGYNIEPDQVRVESLVPAHCEGGSIDHFFENGDELNEQMVQRLEAAREMGLVLRYVARFDANGKARVGVEAVREDHPLASLLPCDNVFAIESRWYRDNPLVIRGPGAGRDVTAGAIQSDINRLAQLL | 0.29 ± 0.06 | 0.029 ± 0.029
6 | metL V462A (protein) MSVIAQAGAKGRQLHKFGGSSLADVKCYLRVAGIMAEYSQPDDMMVVSAAGSTTNQLINWLKLSQTDRLSAHQVQQTLRRYQCDLISGLLPAEEADSLISAFVSDLERLAALLDSGINDAVYAEVVGHGEVWSARLMSAVLNQQGLPAAWLDAREFLRAERAAQPQVDEGLSYPLLQQLLVQHPGKRLVVTGFISRNNAGETVLLGRNGSDYSATQIGALAGVSRVTIWSDVAGVYSADPRKVKDACLLPLLRLDEASELARLAAPVLHARTLQPVSGSEIDLQLRCSYTPDQGSTRIERVLASGTGARIVTSHDDVCLIEFQVPASQDFKLAHKEIDQILKRAQVRPLAVGVHNDRQLLQFCYTSEVADSALKILDEAGLPGELRLRQGLALVAMVGAGVTRNPLHCHRFWQQLKGQPVEFTWQSDDGISLVAVLRTGPTESLIQGLHQSVFRAEKRIGLALFGKGNIGSRWLELFAREQSTLSARTGFEFVLAGVVDSRRSLLSYDGLDASRALAFFNDEAVEQDEESLFLWMRAHPYDDLVVLDVTASQQLADQYLDFASHGFHVISANKLAGASDSNKYRQIHDAFEKTGRHWLYNATVGAGLPINHTVRDLIDSGDTILSISGIFSGTLSWLFLQFDGSVPFTELVDQAWQQGLTEPDPRDDLSGKDVMRKLVILAREAGYNIEPDQVRVESLVPAHCEGGSIDHFFENGDELNEQMVQRLEAAREMGLVLRYVARFDANGKARVGVEAVREDHPLASLLPCDNVFAIESRWYRDNPLVIRGPGAGRDVTAGAIQSDINRLAQLL | 0.406 ± 0.019 | 0.00802 ± 0.0036
7 | metL V462W (protein) MSVIAQAGAKGRQLHKFGGSSLADVKCYLRVAGIMAEYSQPDDMMVVSAAGSTTNQLINWLKLSQTDRLSAHQVQQTLRRYQCDLISGLLPAEEADSLISAFVSDLERLAALLDSGINDAVYAEVVGHGEVWSARLMSAVLNQQGLPAAWLDAREFLRAERAAQPQVDEGLSYPLLQQLLVQHPGKRLVVTGFISRNNAGETVLLGRNGSDYSATQIGALAGVSRVTIWSDVAGVYSADPRKVKDACLLPLLRLDEASELARLAAPVLHARTLQPVSGSEIDLQLRCSYTPDQGSTRIERVLASGTGARIVTSHDDVCLIEFQVPASQDFKLAHKEIDQILKRAQVRPLAVGVHNDRQLLQFCYTSEVADSALKILDEAGLPGELRLRQGLALVAMVGAGVTRNPLHCHRFWQQLKGQPVEFTWQSDDGISLVAVLRTGPTESLIQGLHQSVFRAEKRIGLWLFGKGNIGSRWLELFAREQSTLSARTGFEFVLAGVVDSRRSLLSYDGLDASRALAFFNDEAVEQDEESLFLWMRAHPYDDLVVLDVTASQQLADQYLDFASHGFHVISANKLAGASDSNKYRQIHDAFEKTGRHWLYNATVGAGLPINHTVRDLIDSGDTILSISGIFSGTLSWLFLQFDGSVPFTELVDQAWQQGLTEPDPRDDLSGKDVMRKLVILAREAGYNIEPDQVRVESLVPAHCEGGSIDHFFENGDELNEQMVQRLEAAREMGLVLRYVARFDANGKARVGVEAVREDHPLASLLPCDNVFAIESRWYRDNPLVIRGPGAGRDVTAGAIQSDINRLAQLL | 0.535 ± 0.0089 | 0.00855 ± 0.00013

Reference: the supplement of paper PMC11876631
